Out of some 130,000 compounds screened, about 1,900 (1.5%) were called active. Inconclusive results, whose numbers are uncertain, are shown with a selection of clear calls. Calls come from the whole dose curve; as a rule, active = well fitted cell-killing curve with a large enough effect; inconclusive = small, poorly fitted or top-dose-only effect; inactive = no such curve, though single readings can be large or run the other way. A potency beside an inconclusive call is a rough fit, not a confirmed value.
test: qHTS Screen for Compounds that Selectively Target Cancer Cells with p53 Mutations: Cytotoxicity of p53ts Cells at the Nonpermissive Temperature; conditions: H1299-p53A138V viability at 39C, ATP luminescence, 24 h; activity change, negative = cell killing: at 46.1 µM (top of the series); note: nearly all actives have a fitted effect of over 55% in size
% is set by controls: 0 for no effect and ±100 for the full control effect; potency is the fitted concentration of half-maximal effect; tags give direction and shape of the fitted curve.

| Compound | Potency | activity change, negative = cell killing |
| --- | --- | --- |
| Cc1ccc(-c2nc(-c3ccccn3)no2)cc1 | active: 0.398 µM | – |
| Cc1c(NC(=O)C(C)N2C(=O)C3C4C=CC(C4)C3C2=O)c(=O)n(-c2ccccc2)n1C (stereo not drawn) | inactive | – |
| Cc1ccc(-n2nc(CO)c(C(=O)NCc3ccccn3)n2)cc1 | inconclusive: 12.6 µM [cytotoxic, partial curve, poor fit] | – |
| O=C1Nc2ccccc2Oc2cc(Oc3cccc(Cl)c3)ccc21 | inconclusive: 31.6 µM [cytotoxic, single point] | – |
| Cc1c(Cl)cccc1-c1ccc(CNCCCSc2nnnn2C)o1 | inconclusive: 10 µM [cytotoxic, single point] | – |
| CCOC(=O)c1cc(-c2ccccc2)n(CCC(=O)NCc2ccccc2Cl)c1C | inconclusive: 12.6 µM [cytotoxic, partial curve] | – |
| Cc1ccc(-n2c(SCn3nnc4ccccc4c3=O)nnc2-c2cccnc2)c(C)c1 | inactive | – |
| O=C(Nc1ccc2c(c1)CCC2)c1ccc(F)cc1 | inconclusive: 7.94 µM [cytotoxic, partial curve] | – |
| Cc1cn2c(=O)cc(COc3cccc(NC(=O)c4ccc(C(C)(C)C)cc4)c3)nc2s1 | inconclusive: 10 µM [cytotoxic, partial curve, poor fit] | – |
| Cc1ccc(C2=CC(c3ccccc3C)n3c(nc4ccccc43)N2)cc1 (stereo not drawn) | active: 5.01 µM | – |
| OC(COCC(F)(F)C(F)(F)C(F)(F)C(F)F)Cn1c2ccc(Cl)cc2c2cc(Cl)ccc21 (stereo not drawn) | inconclusive: 35.5 µM [cytotoxic, single point] | – |
| COc1cc(C2C(=O)N(C3CCCCCC3)CC(=O)N2Cc2ccccc2)ccc1OC(C)C (stereo not drawn) | inconclusive: 3.98 µM [cytotoxic, partial curve, poor fit] | – |
| O=C(CSc1ncc(-c2ccccc2)n1CC1CCCO1)N1CCCCC1 (stereo not drawn) | inactive | – |
| OCCSc1nnc(Nc2ccccc2)s1 | inconclusive: 6.31 µM [cytotoxic, partial curve] | – |
| CCC(Sc1ncc(S(=O)(=O)c2ccc(C)cc2)c(=O)[nH]1)C(=O)Nc1cc(C)ccc1C (stereo not drawn) | inactive | – |
| Cc1ccc2nc(/C(C#N)=N/O)[nH]c2c1 | inconclusive: 10 µM [cytotoxic, partial curve] | – |
| Cn1nnnc1SCCCNCc1cccc(OCc2ccccc2F)c1 | inconclusive: 5.62 µM [cytotoxic, partial curve, poor fit] | – |
| COc1ccc(-c2noc(-c3cccc(Cl)c3)n2)cc1OC | inactive | – |
| CCN1CCc2c(sc(NC(=O)c3ccc(S(=O)(=O)N(C)C4CCCCC4)cc3)c2C(N)=O)C1 | inconclusive: 15.8 µM [cytotoxic, partial curve, poor fit] | – |
| COc1cc(OC)cc(C(=O)Nc2ccc3nc4c(c(Nc5ccc(OC)c(OC)c5)c3c2)CCCC4)c1 | inconclusive: 31.6 µM [cytotoxic, single point] | – |
| O=S(=O)(O)c1cc(O)c2c(N=Cc3ccccc3O)cc(S(=O)(=O)O)cc2c1 | – | inactive: 9.85% [at 9.22 µM] |
| CCCCc1ccc(Nc2cc(C)nc(-n3nc(C)cc3C)n2)cc1 | inconclusive: 10 µM [cytotoxic, partial curve] | – |
| COc1cccc(CCc2ccccc2OCC[C@@H]2C[C@@H](O)CN2C)c1 | active: 12.6 µM | – |

| Compound | Potency | activity change, negative = cell killing |
| --- | --- | --- |
| CCCn1c(COc2cccc(C)c2)nc2ccccc21 | inconclusive: 10 µM [cytotoxic, single point] | – |
| COc1ccc(-c2onc(C)c2C)cc1S(=O)(=O)N1CCc2ccccc21 | inactive | – |
| CCOC(=O)c1ccc(NC(=O)CC2Nc3cccc4cccc(c34)NC2=O)cc1 (stereo not drawn) | inconclusive: 12.6 µM [cytotoxic, partial curve] | – |
| Cn1c(C[C@@H](O)c2nc3ccccc3n2C)nc2ccccc21 | – | inactive: -8.94% [at 9.22 µM] |
| COc1cccc(NS(=O)(=O)c2ccc3[nH]c4c(c3c2)CCCCCC4)c1 | active: 20 µM | – |
| CCc1nnc(SCC(=O)Nc2ccc(Cl)cc2F)c2cc3occc3n12 | inactive | – |
| CCc1ccc(CNC(=O)c2ccc(CS(=O)c3ccc(Br)cc3)o2)cc1 (stereo not drawn) | inactive | – |
| CC(C)c1ccc(NC(=O)CSc2ncnc3c2sc2ccccc23)cc1 | inconclusive: 31.6 µM [cytotoxic, single point] | – |
| O=C(c1ccc2c(c1)OCCCO2)c1cccs1 | inconclusive: 15.8 µM [cytotoxic, partial curve] | – |
| CCN1CCN(c2ncc(C(=O)Nc3cc(Cl)ccc3OC)c3ccccc23)CC1 | inconclusive: 12.6 µM [cytotoxic, partial curve] | – |
| CC(C)c1ccc(NC(=O)c2ccc3oc(=O)c(S(=O)(=O)c4ccc(F)cc4)cc3c2)cc1 | active: 2.51 µM | – |
| CCOc1ccccc1NC(=O)Nc1ccc2nc(N3CCN(C)CC3)cc(C)c2c1 | active: 10 µM | – |
| COc1ccccc1NC(=O)CSc1ccc2nnc(-c3ccncc3)n2n1 | inconclusive: 31.6 µM [cytotoxic, single point] | – |
| COc1c(C)cccc1C(=O)Nc1ccc(Cl)c(-c2nc3cc(C)ccc3o2)c1 | inactive | – |
| Cc1cccnc1NC(=O)c1ccc2nc(N)sc2c1 | inconclusive: 20 µM [cytotoxic, single point] | – |
| COc1ccccc1NC(=O)C1=C(C)Nc2nc(SCc3ccccc3F)nn2C1c1ccncc1 (stereo not drawn) | inactive | – |
| CCCCCn1c(=O)[nH]c2cc(C(=O)N3CCN(c4cccc(Cl)c4)CC3)ccc2c1=O | inactive | – |
| CN(c1ccccc1)S(=O)(=O)c1nnc(NC(=O)c2ccco2)s1 | inconclusive: 15.8 µM [cytotoxic, single point] | – |
| COc1ccccc1-c1ccc(Nc2cccc(C(C)=O)c2)nn1 | inactive | – |
| O=C(CCS(=O)(=O)c1nc(-c2cccs2)cc(C(F)(F)F)n1)Nc1ccc(Br)cc1 | inconclusive: 31.6 µM [cytotoxic, single point] | – |
| CSc1nn(Cc2ccccc2C)c(NC(C)=O)c1S(=O)(=O)c1ccc(C)cc1 | inactive | – |
| CC(=O)[C@@H]1[C@H]2[C@H](C(=O)[C@H]3OC[C@@H]2O3)[C@H]2C=Cc3ccccc3N21 | inconclusive: 15.8 µM [cytotoxic, partial curve] | – |
| COC(=O)c1ccc(CSc2nc3c([nH]c4ccccc43)c(=O)n2-c2cccc(Cl)c2)o1 | inconclusive: 10 µM [cytotoxic, partial curve, poor fit] | – |

| Compound | Potency | activity change, negative = cell killing |
| --- | --- | --- |
| O=C(CSCSCC(=O)Nc1ccc2c(c1)OCO2)Nc1ccc2c(c1)OCO2 | inactive | – |
| COc1ccc(OCCOC(=O)Nc2ccccc2)cc1 | inconclusive: 3.16 µM [cytotoxic, partial curve] | – |
| O=C(NC1CCN(Cc2ccccc2)CC1)c1ccc(Cn2c(=O)c3ccccc3n(Cc3ccc(F)cc3)c2=O)cc1 | inconclusive: 12.6 µM [cytotoxic, single point] | – |
| CC(=O)c1ccc(NS(=O)(=O)c2ccc(-n3cccn3)cc2)cc1 | inconclusive: 0.0316 µM [cytotoxic, full curve, poor fit] | – |
| CCOc1ccc(CNC(=O)c2cc(-c3ccc(Cl)s3)nc3ccccc23)cc1 | inconclusive: 3.16 µM [cytotoxic, full curve] | – |
| O=C(c1ccc2c(c1)N(Cc1ccc(Cl)cc1)C(=O)c1ccccc1S2=O)N1CCCCC1 (stereo not drawn) | inconclusive: 31.6 µM [cytotoxic, single point] | – |
| O=C(NCCN1CCCCC1)c1ccc(Cn2c(SCc3ccccc3)nc3cccnc32)cc1 | active: 10 µM | – |
| O=C(c1ccc(Cl)cc1)N1CCCCC(Sc2nnc(-c3ccc4c(c3)OCO4)o2)C1=O (stereo not drawn) | inconclusive: 2.82 µM [cytotoxic, full curve] | – |
| Nc1nnnn1/N=C/C(Br)=C/c1ccccc1 | inconclusive: 31.6 µM [cytotoxic, single point] | – |
| Cc1cnc(C(=O)Nc2ccc3c(c2)CCC3)cn1 | inconclusive: 12.6 µM [cytotoxic, single point] | – |
| COc1ccc(CCNC(=O)CCCn2nc(C)c3sc4ccccc4c3c2=O)c(OC)c1 | inconclusive: 10 µM [cytotoxic, partial curve] | – |
| COC(=O)c1cc2occc2n1CC(=O)Nc1ccc(C)cc1Cl | inconclusive: 20 µM [cytotoxic, partial curve] | – |
| CC1=CC(C)(C)Nc2ccc(OC(=O)c3cccnc3)cc21 | inconclusive: 20 µM [cytotoxic, single point] | – |
| Cc1cccc(Nc2nnc(SCC3CCCCO3)s2)c1C (stereo not drawn) | inconclusive: 11.2 µM [cytotoxic, partial curve] | – |
| CCC(C(=O)NC1CCCCC1)n1c(SCc2cccc(C)c2)nc2ccncc21 (stereo not drawn) | active: 10 µM | – |
| C[C@@H](C(=O)Nc1ccc2ccccc2c1)[C@H]1C[C@]1(C)[C@H](NP(=O)(c1ccccc1)c1ccccc1)c1ccccc1 | inconclusive: 31.6 µM [cytotoxic, single point] | – |
| NC(=O)CSc1nc2c(oc3ccccc32)c(=O)n1Cc1ccccc1 | inconclusive: 31.6 µM [cytotoxic, single point] | – |
| O=c1c2oc3ccccc3c2n(Cc2ccc(F)cc2)c(=O)n1Cc1ccco1 | inconclusive: 31.6 µM [cytotoxic, single point] | – |
| CCOC(=O)C1CCN(C(c2ccc(OCC)cc2)c2c(O)cc(C)n(CCOC)c2=O)CC1 (stereo not drawn) | inactive | – |
| Oc1ccccc1Nc1nc(NCC2CCCO2)c2ccccc2n1 (stereo not drawn) | inconclusive: 15.8 µM [cytotoxic, single point] | – |
| Cc1ccc2c(c1)c1c3n2CCN[C@H]3CCC1 | inconclusive: 15.8 µM [cytotoxic, partial curve] | – |
| CCOC(=O)c1ccc2nc(C)cc(Nc3ccc(OC(C)C)cc3)c2c1 | inconclusive: 20 µM [cytotoxic, single point] | – |

— PubChem BioAssay AID902 (National Center for Advancing Translational Sciences (NCATS), 2007)
